Test results from article PMC4336329 (PLoS ONE, 2015).
Hit rate of the full screen: of about 310,000 compounds, about 14,000 (4.5%) showed an effect of 50% or more. The effect is printed as a negative number. This is one part of the list.

What follows are compounds tested against human ether-à-go-go-related gene (hERG) potassium channel (human, UniProt Q12809) (assay: primary screen, population patch clamp on CHO cells stably expressing hERG).
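Further: peak tail current of the secondary pulse compared with the same well before compound.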

Sequence of human ether-à-go-go-related gene (hERG) potassium channel (Q12809 whole entry, looked up): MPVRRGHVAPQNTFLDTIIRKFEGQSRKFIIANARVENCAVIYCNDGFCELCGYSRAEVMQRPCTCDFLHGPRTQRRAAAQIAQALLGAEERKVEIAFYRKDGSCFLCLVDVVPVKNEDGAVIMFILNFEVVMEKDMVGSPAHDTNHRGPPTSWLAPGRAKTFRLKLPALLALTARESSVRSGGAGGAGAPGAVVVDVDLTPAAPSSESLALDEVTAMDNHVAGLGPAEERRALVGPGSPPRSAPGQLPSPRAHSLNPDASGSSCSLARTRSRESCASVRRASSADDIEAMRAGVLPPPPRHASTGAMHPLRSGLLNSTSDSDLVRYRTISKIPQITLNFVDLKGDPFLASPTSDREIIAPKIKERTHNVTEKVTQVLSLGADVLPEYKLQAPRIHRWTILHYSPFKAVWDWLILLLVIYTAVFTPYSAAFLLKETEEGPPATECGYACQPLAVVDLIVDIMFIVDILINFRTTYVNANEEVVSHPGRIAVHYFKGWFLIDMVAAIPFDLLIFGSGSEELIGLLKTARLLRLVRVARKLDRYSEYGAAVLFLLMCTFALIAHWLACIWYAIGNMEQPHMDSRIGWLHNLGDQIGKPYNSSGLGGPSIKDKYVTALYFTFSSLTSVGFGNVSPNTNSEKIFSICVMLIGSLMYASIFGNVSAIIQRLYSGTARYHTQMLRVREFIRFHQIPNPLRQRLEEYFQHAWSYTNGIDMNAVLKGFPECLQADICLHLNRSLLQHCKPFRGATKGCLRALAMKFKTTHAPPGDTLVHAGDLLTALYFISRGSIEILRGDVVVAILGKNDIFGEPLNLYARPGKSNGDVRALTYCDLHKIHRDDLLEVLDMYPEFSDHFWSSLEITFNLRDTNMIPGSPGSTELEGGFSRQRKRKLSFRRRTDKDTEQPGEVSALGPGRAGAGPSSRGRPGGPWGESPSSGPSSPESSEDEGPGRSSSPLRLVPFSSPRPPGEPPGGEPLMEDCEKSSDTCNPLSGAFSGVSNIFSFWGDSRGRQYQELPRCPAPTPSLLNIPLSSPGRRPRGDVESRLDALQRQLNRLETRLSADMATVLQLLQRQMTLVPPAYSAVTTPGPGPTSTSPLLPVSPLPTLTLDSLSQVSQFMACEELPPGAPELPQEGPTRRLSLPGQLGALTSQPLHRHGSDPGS

| SMILES | hERG current change (%, negative = inhibition) at 10uM [%] |
| --- | --- |
| Cc1ccc(N(CC(=O)N2CCc3ccccc32)S(=O)(=O)c2cccs2)cc1 | 3.66 |
| Cc1c(C(=O)N/N=C/c2ccc(N3CCOCC3)cc2)nc2ccccn12 | -1.87 |
| COc1cccc(C(=O)Nc2c(F)cccc2F)c1 | 13.7 |
| CCOC(=O)CNc1ncc([N+](=O)[O-])cc1C#N | 9.14 |
| CC(=O)c1ccc(OCCOc2ccc(C#N)cc2)cc1 | -49.4 |
| Cn1nc(-c2ccccc2)c2nc3ccccc3nc21 | -5.31 |
| Cc1nc(NCCCn2ccnc2)c2ccccc2n1.Cl | 3.46 |
| N#CC(C(N)=O)=C1CCCCC1 | 3 |
| CS(=O)(=O)c1cccc(C(=O)Nc2ccccc2Cc2ccccc2)c1 | -1.45 |
| COCCn1nnnc1C(c1cc2cc(C)ccc2[nH]c1=O)N1CCc2ccccc21 (stereo not shown) | 11.7 |
| c1ccc(Cn2nnc3c(N4CCC5(CC4)OCCO5)ncnc32)cc1 | -22.2 |
| CCC(CC)C(=O)Nc1cc(C)c2c(=O)oc3ccccc3c2n1 | 1.39 |
| Cc1nnc(N2CCN(Cc3ccccc3)CC2)[nH]c1=O | 5.07 |
| CC(=O)C1=C(C)OC2(O)c3ccccc3C(=O)C12O (stereo not shown) | 10 |
| Cc1ccc(-n2cc(CNC(C)Cn3cncn3)c(-c3ccc(F)cc3)n2)cc1 (stereo not shown) | -60.7 |
| O=C(CCc1ccccc1)Nc1cccc(-c2nnc(-c3ccco3)o2)c1 | 2.2 |
| Cc1cc(Cl)ccc1NC(=O)COC(=O)CCNS(=O)(=O)c1ccccc1 | -27.6 |
| O=C(CNS(=O)(=O)c1ccc(Br)s1)N1CCC2(CC1)OCCO2 | -7.69 |
| Cc1ccccc1OCCNc1cc(N2CC(C)NC(C)C2)ccc1[N+](=O)[O-] (stereo not shown) | -12.3 |
| COCCSc1ccccc1C(=O)Nc1nncs1 | -5.1 |
| CCc1ccc(NC(=O)Cn2cnc3c(=O)n(C)c(=O)n(C)c32)cc1 | 13.2 |
| COc1ccc(S(=O)(=O)N2CCOCC2)cc1NC(=O)COC(=O)C1COc2ccccc2O1 (stereo not shown) | -11.7 |

| SMILES | hERG current change (%, negative = inhibition) at 10uM [%] |
| --- | --- |
| CC(=O)NS(=O)(=O)c1ccc(NC(=O)c2ccc(Cl)cc2[N+](=O)[O-])cc1 | 19 |
| Cc1noc(C(=O)Nc2ccc(F)cc2F)c1Cl | 11.3 |
| Cc1cccc(C)c1OCCN1CCOCC1.O=C(O)C(=O)O | -0.56 |
| CCOc1nc2ccccc2nc1NS(=O)(=O)c1ccccc1 | -1.6 |
| CN(C)CCCn1c(=O)n(CCc2ccccc2)c(=O)c2c3c(sc21)CCCCC3 | -70.4 |
| CCOc1ccccc1NC(=O)NC1CCCc2ccccc21 (stereo not shown) | 10.6 |
| C#CCSc1nc(-c2cccs2)ccc1C#N | -13.4 |
| Cc1ccc([N+](=O)[O-])cc1NC(=O)/C=C/C(=O)O | -2.79 |
| COC(=O)c1cc(-c2ccc(OC)c(OC)c2)c2c(=O)[nH]c(=O)n(C)c2n1 | 21.3 |
| CCc1ccccc1N(CC(=O)NCc1ccc(OC)cc1)C(=O)CCC(=O)Nc1ccccn1 | 4.26 |
| CC1CCCC(NC(=S)NC(=O)c2cncc(Br)c2)C1C (stereo not shown) | 21.7 |
| COc1ccccc1-c1nc(C#N)c(N2CC(C)CC(C)C2)o1 (stereo not shown) | 5.24 |
| CN(C)CC#CCn1c2ccccc2c2ccccc21.Cl | -2.15 |
| CCCCN(C(=O)c1cc(S(=O)(=O)N2CCCCCC2)ccc1OC)c1c(N)n(CCC)c(=O)[nH]c1=O | 3.86 |
| O=C(Cn1ccc(C(F)(F)F)n1)Nc1ccc(S(=O)(=O)NCc2ccco2)cc1 | 1.34 |
| Cn1c(=O)c2c(nc(CN3CCN(c4ccccc4)CC3)n2Cc2c(F)cccc2Cl)n(C)c1=O | -22.1 |
| COC(=O)C1=C(C(=O)OC)C(c2ccccc2O)c2sc(=O)[nH]c2S1 (stereo not shown) | -55.9 |
| O=C(c1cc(-c2ccccc2)nc2ccccc12)N1CCc2ccccc2C1 | -16.1 |
| COc1cc(/C=C2\NC(=S)N(C)C2=O)ccc1OCc1cccc(F)c1 | 10.5 |
| CCCn1nnc(NC(=S)NC(=O)/C=C/c2ccc(Cl)cc2)n1 | 19.5 |
| O=C(COC(=O)c1cc([N+](=O)[O-])ccc1NCc1ccccc1)NC1CCCCC1 | -6 |
| O=C1CN(C(=O)COC(=O)/C=C/c2ccc(OC(F)F)cc2)c2ccccc2N1 | -16.2 |

| SMILES | hERG current change (%, negative = inhibition) at 10uM [%] |
| --- | --- |
| Cn1cc(CN2CCC(n3nccc3NC(=O)CCc3ccccc3)CC2)cn1 | 16 |
| O=C(NCCCN1CCOCC1)c1ccc2nc(Cc3ccccc3F)oc2c1 | -6.93 |
| O=C(O)CCCN(Cc1cccc(Br)c1)S(=O)(=O)c1ccc(Br)cc1 | -23.4 |
| Cc1nnc(SCc2cc(=O)oc3ccc4ccccc4c23)n1Cc1ccccc1 | -23.8 |
| COc1cccc(CNCCSc2nnnn2C)c1OC.Cl | -2.18 |
| CCS(=O)(=O)N1CCN(C(=O)c2ccc(-c3ccccc3)cc2)CC1 | -12.8 |
| COC(=O)c1ccc(COc2ccc(C(C)(C)C)cc2)o1 | 21.1 |
| CCc1ccc(-n2c(SCC(=O)N3CCC(C(=O)O)CC3)nnc2-c2ccncc2)cc1 | -0.767 |
| COc1ccc(CCNC(=O)CSc2nnnn2-c2ccc(OC)c(OC)c2)cc1OC | 2.17 |
| CCC1(c2ccc(F)cc2)NC(=O)N(CC(=O)Nc2ccc(C(N)=O)cc2)C1=O (stereo not shown) | 23.5 |
| CCOc1ccc(C(=O)NCCn2cc(SCC(=O)Nc3cc(C)on3)c3ccccc32)cc1 | 3.4 |
| CCOC(=O)/C(=C\C=C1/Sc2cc(OCC)c(OCC)cc2N1CC)C(C)=O | -11.8 |
| CCCCC(CC)C(=O)Nc1ccc(Nc2ccccc2)cc1 (stereo not shown) | -12.8 |
| O=C(CCCc1ccccc1)NCc1ccc(Cl)cc1 | -15.3 |
| CC(C)N(Cc1nc(-c2ccc(Cl)cc2)no1)C(=O)/C=C/c1ccccc1 | 3.41 |
| O=C(CSc1nc2ccccc2c(=O)n1Cc1ccco1)N1CCCC1 | -77.1 |
| COc1ccc(S(=O)(=O)N2CCN(CC(=O)Nc3sccc3C(N)=O)CC2)cc1OC | -28 |
| O=C(NN=C1CCCC1)c1ccn[nH]1 | 2.96 |
| O=P(COCCOCCOCP(=O)(c1ccccc1)c1ccccc1)(c1ccccc1)c1ccccc1 | -31.6 |
| CC1(C)Cc2nc3sc4c(N5CCCC5)nnnc4c3cc2CO1 | 1.3 |
| COc1ccc(CNC(=S)Nc2ccc(-c3ccccc3)cc2)cc1 | 9.6 |
| COc1cc(/C=C/[N+](=O)[O-])ccc1OC(=O)c1cccnc1 | 12.8 |

| SMILES | hERG current change (%, negative = inhibition) at 10uM [%] |
| --- | --- |
| Cc1ccc(NC(=O)Cn2c([N+](=O)[O-])cnc2C)cc1 | 19.1 |
| O=C(C1CC(=O)N(c2ccc3c(c2)OCCO3)C1)N1CCN(c2cccc(C(F)(F)F)c2)CC1 (stereo not shown) | -34.6 |
| CCOc1ccc(CC(=O)NCC(=O)NCc2cc(=O)n(C)c(=O)n2C)cc1 | -14 |
| N#CC1=C(N)Nc2ncnn2C1c1ccc(F)cc1 (stereo not shown) | -16.3 |
| CCN1CCN(Cc2ccc(NC(=O)c3cc(NC(=O)C(=O)c4c[nH]c5ccccc45)cc(OC)c3)cc2C(F)(F)F)CC1 | 8.1 |
| O=C(O)CNC(=O)/C(=C\c1ccco1)NC(=O)c1ccco1 | 18.6 |
| CCCCn1c(N)c(N(CCOC)C(=O)C2CCN(S(=O)(=O)c3ccc(C)c(C)c3)CC2)c(=O)[nH]c1=O | -14.4 |
| COc1ccc(S(=O)(=O)N2CCCCC2)cc1NC(=O)CN(Cc1ccco1)Cc1ccco1 | -23.7 |
| Cc1ccc(NC(=O)COC(=O)C2CCC2)cc1S(=O)(=O)N1CCCCC1 | -9.25 |
| CC(=O)NCCc1c[nH]c2ccc(O)cc12 | 33.8 |
| COc1ccc(CN2CCC(N3CC(C)OC(C)C3)CC2)c(OC)c1OC.O=C(O)C(=O)O (stereo not shown) | -1.67 |
| COc1ccc(-c2noc(=O)n2Cc2ccc(F)cc2Cl)cc1 | -7.78 |
| CCc1ccc(Nc2n[n+](-c3ccccc3)c(-c3ccc(C(=O)O)cc3)s2)cc1.[Cl-] | 13.1 |
| CC/C=C\[C@H](O)[C@H](O)C1=C(C)C(=O)[C@]2(O1)C(=O)N[C@@](OC)(C(=O)c1ccccc1)C2O (stereo partly shown) | -6.87 |
| NC(=O)CC(NC(=O)Cc1cccc2ccccc12)c1ccc(NC2CCN(Cc3ccccc3)CC2)c([N+](=O)[O-])c1 (stereo not shown) | -2.54 |
| CC1CN(C(=O)COC(=O)c2cccc(NS(=O)(=O)c3ccccc3)c2)CC(C)O1 (stereo not shown) | -0.0601 |
| CC(C)(C)OC(=O)NCCCC[C@H](NC(=O)c1[nH]cnc1C(=O)Nc1ccc(CNC(=O)OC(C)(C)C)cc1)C(=O)OC(C)(C)C | 24 |
| O=C(CN1C(=O)S/C(=C\c2cccc(Cl)c2)C1=O)NC1C=CS(=O)(=O)C1 (stereo not shown) | 18.1 |
| CCOC(=O)c1c(C)[nH]c(C)c1C(=O)CSc1nc2ccccc2n1CCC#N | 8.67 |
